# Laboratory results published in paper PMC4242493.
# This is one part of the list. The list includes weakly bound sequences.
# Molecular target: MaxL homodimer (UniProt P61244)
# Experiment: universal protein-binding microarray (PBM)
# Conditions: PBS-based mixture, 10 nM His-tagged protein dimer, 2% milk, 200 ng/uL BSA, 50 ng/uL salmon testes DNA, 0.02% TX-100; detection with Alexa 488 anti-His …; high values mean tight binding; most listed sequences are background and not binding sites; double strand, one strand shown
# Sequence of UniProt P61244 (P61244 whole entry): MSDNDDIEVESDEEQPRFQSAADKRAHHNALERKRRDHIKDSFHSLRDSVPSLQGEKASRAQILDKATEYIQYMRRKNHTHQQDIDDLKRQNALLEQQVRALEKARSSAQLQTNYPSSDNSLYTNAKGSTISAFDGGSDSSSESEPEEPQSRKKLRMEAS
row,Sequence,binding signal (normalized occupancy)
1,CAGCATGA,0.106
2,CCTTCTCC,0.071
3,GTCAAGCA,0.0776
4,CATGTTGG,0.0918
5,AACCTTTG,0.0696
6,CATACCAA,0.085
7,ACAAGAGC,0.0748
8,CCATGCCA,0.0875
9,CACTGTTA,0.0737
10,GACCGCAA,0.0683
11,CCCTGTCG,0.0722
12,CTATGTTA,0.0812
13,GATGCTTA,0.0759
14,CAGTGGCC,0.0653
15,GACTAGAC,0.0698
16,CAGTGTGG,0.0854
17,AGTCATCC,0.0756
18,GGTCGCTA,0.0713
19,GGTTACAA,0.0762
20,GACGCAGA,0.0709
21,AGCTTAAA,0.0696
22,ACAACACC,0.0812
23,CAGCATTA,0.0824
24,GTACAACA,0.0787
25,CTATACTA,0.0789

row,Sequence,binding signal (normalized occupancy)
1,ACGTTACT,0.0911
2,ATTTCACC,0.0745
3,AAAGTGTC,0.0707
4,GCAGGAAC,0.071
5,TATGAACA,0.0793
6,AAGAGATG,0.0789
7,GGCAAGCC,0.0715
8,CGCGGCTC,0.073
9,CCTGTTCG,0.0735
10,CGGGCGCC,0.0687
11,GCGTACGA,0.075
12,ACTATTGG,0.0759
13,CCTTATCA,0.0784
14,CCAGCAAA,0.0781
15,TAACATAA,0.0762
16,CACCAATA,0.0713
17,CCACACTA,0.0809
18,ATAATCTA,0.0826
19,CCTAGCAG,0.0704
20,CCTCGGGC,0.0661
21,TACGGTCA,0.0735
22,AGTCGTAC,0.0745
23,ACCGGTGC,0.0722
24,TATTCAAA,0.0733
25,AGTATGTA,0.086

row,Sequence,binding signal (normalized occupancy)
1,AATATGGT,0.0807
2,ACCGGAAT,0.0751
3,CGACTCCA,0.0709
4,GCTATCTA,0.0739
5,CCCGGAGA,0.0684
6,TAAACAGA,0.0719
7,AGAGTCGA,0.0688
8,GGACAGCC,0.0684
9,GAAGAATA,0.0796
10,ACTGTGAC,0.0707
11,ACGCCGTA,0.078
12,ACAAGACG,0.076
13,ATGAGAGC,0.078
14,ATATGCAT,0.0949
15,AGAGGGGG,0.0776
16,GATCCCTA,0.0747
17,ACCATCGG,0.0713
18,ACTACGAT,0.0766
19,AGAGCGCA,0.073
20,GCACTGCC,0.07
21,ATACAAAG,0.0726
22,CTACAGCC,0.0733
23,AGCTTATC,0.074
24,GGGAGAAC,0.0729
25,ACGTTGCA,0.0788

row,Sequence,binding signal (normalized occupancy)
1,GCCTCGAC,0.0728
2,ATAACTTA,0.081
3,AAAAATCT,0.0754
4,AAGTGCAC,0.0774
5,CGTTGTTC,0.0743
6,AGTCGCCA,0.0708
7,AGACAAAC,0.0692
8,CGTAGGAC,0.0708
9,AAGACGCG,0.0745
10,ACGGCTCA,0.0723
11,GTACTCAC,0.0734
12,GGGATCAC,0.0823
13,CGTACGGC,0.0778
14,ACGGCATC,0.0761
15,AAAGTTCC,0.074
16,ATGGAATA,0.0803
17,ACTATATC,0.0848
18,ATTCCGGG,0.0703
19,CCCAGTTA,0.0735
20,AACGTTCT,0.0733
21,CGCCCGCA,0.0687
22,AACGGGCT,0.0686
23,CAGGGGCG,0.0724
24,AGCTTCAA,0.075
25,TCCACAGA,0.0771

row,Sequence,binding signal (normalized occupancy)
1,GAGCGGAA,0.0691
2,CCAGGGAA,0.0806
3,CCGTGAGC,0.0713
4,CCCTCAAG,0.0749
5,CCCGATAG,0.077
6,ACCTTGCA,0.0711
7,GTGCAAAA,0.0757
8,GCCAAACA,0.075
9,TATAGCAA,0.0828
10,AGTCTATA,0.0752
11,GTTGGTGA,0.082
12,ACAGGTAC,0.0756
13,ACTTAGAT,0.0793
14,GTTGTCCA,0.0734
15,ACGGACGC,0.0716
16,TCGTCTAA,0.0693
17,CGGATCTC,0.076
18,AGGCGGGA,0.075
19,CGCCCTCC,0.0755
20,ACCGGCCT,0.073
21,CAAAGTAA,0.0722
22,CTGGCCCC,0.0702
23,CCGTCAAC,0.0656
24,CCCCCCCA,0.0901
25,CCTAATTA,0.0783

row,Sequence,binding signal (normalized occupancy)
1,GGCCCACC,0.0717
2,AGGGTTGC,0.0731
3,ACCTTGAG,0.0742
4,AACGACTC,0.0713
5,CTTCTCCA,0.0743
6,CGGATTCC,0.0695
7,CCGGGCTC,0.0634
8,TGATGCAA,0.0767
9,CTACATAG,0.0805
10,ACATTAAG,0.0842
11,AACTGAAG,0.0704
12,ATTATCGG,0.0741
13,AGAAATTC,0.0709
14,GATATGCC,0.0773
15,ACAGACGA,0.0752
16,AATGTGGA,0.0903
17,ATAGACAA,0.0787
18,ATAATCGA,0.074
19,ACTTAGAG,0.0744
20,AAACCACA,0.0814
21,TCCGGGCA,0.0678
22,CGATGGAA,0.076
23,AACTAATA,0.0803
24,CATCGCCG,0.0697
25,CCTGCAAC,0.0785

row,Sequence,binding signal (normalized occupancy)
1,ATAGAGTG,0.0742
2,ACCGAAAA,0.072
3,ATGATTTA,0.079
4,AAATTATC,0.078
5,CTACGAAG,0.0698
6,AGCTACCT,0.0689
7,CACGCATC,0.0962
8,ACCCCTCT,0.0728
9,ATGTCCCG,0.0773
10,AGGGTCTC,0.0786
11,CGAGGTTA,0.0789
12,AGAGCCAC,0.0769
13,AAAGGGCT,0.0666
14,AAGGACCC,0.0707
15,GTATTGTA,0.0817
16,ATGTATTC,0.0814
17,TAATCGCA,0.0751
18,ACATACGA,0.0787
19,CTGTGTCC,0.0689
20,CAAGCATC,0.0744
21,ATTTAGGG,0.0752
22,GAGGGTGC,0.082
23,CTCAATCC,0.0714
24,AGGCATAT,0.0855
25,TCCCTCGA,0.0734

row,Sequence,binding signal (normalized occupancy)
1,ATGTAACA,0.0853
2,ACATCACT,0.0768
3,GGCGAACA,0.0765
4,CTTGGTCC,0.0723
5,ACCCGCTC,0.0757
6,CTGTTGTC,0.0733
7,ACAGAGAA,0.0789
8,CTTTGCAC,0.075
9,AAGAGCTT,0.0667
10,CGACGAGC,0.0684
11,GGGTCAAC,0.0749
12,CTACTCCA,0.0773
13,CGTGGCAC,0.0871
14,CATATCTC,0.0851
15,CCCGCCAG,0.0714
16,ATGTCTAC,0.0813
17,CCCACTAA,0.0821
18,GCTATGCA,0.0745
19,AAGGAAAA,0.0772
20,ACAAATAA,0.0777
21,CCTATCAA,0.0786
22,ACCTCTAC,0.075
23,ATTGTGAC,0.0766
24,CATAAACG,0.08
25,GCCAAGGC,0.0701

row,Sequence,binding signal (normalized occupancy)
1,GATGTCGC,0.0759
2,GGCGCTAA,0.0688
3,GCATCCCA,0.0903
4,ACCACTCT,0.075
5,AGCCCAGG,0.0653
6,CAAAAGGC,0.0663
7,GCCGCCCC,0.0703
8,TCGCGAAA,0.0675
9,GGACCATA,0.0795
10,GACTGATA,0.0742
11,CTCTGGCC,0.0668
12,AGCGCGCG,0.0841
13,AGCACCCA,0.0772
14,AGGCTATG,0.0762
15,ACGAAACT,0.0701
16,CTCTGTTC,0.0751
17,ATAGGCAC,0.0803
18,AAATACTG,0.0762
19,GCCCATAC,0.0818
20,AGCGTCAC,0.0737
21,ATAGGATC,0.0763
22,ATGTTACA,0.0803
23,CCCCTGCG,0.0735
24,GAACGACC,0.0745
25,GCAACACA,0.0795

row,Sequence,binding signal (normalized occupancy)
1,CGATCTTC,0.072
2,CCCCACTC,0.0848
3,AGAACTAG,0.0659
4,ATCCTAAT,0.0837
5,AATTAGTC,0.0741
6,TCAACGGA,0.0741
7,TCGATCAA,0.0743
8,AGACAGTA,0.0793
9,CTCTTCGA,0.0653
10,AGGTAGGA,0.0722
11,CAACTTAA,0.0723
12,CTGACCTC,0.0774
13,GTATGGCA,0.0837
14,GACTTTGC,0.0705
15,AGACACAT,0.0849
16,ACCGTCGG,0.0667
17,AGGTTGGA,0.0747
18,GACCGGTA,0.0674
19,CCCAGAGC,0.0671
20,CCATGCCG,0.1
21,AAGCGGTG,0.0684
22,GACACATA,0.0836
23,CTGCACAG,0.0707
24,GCCCCGGC,0.0656
25,GACGAACC,0.0703

row,Sequence,binding signal (normalized occupancy)
1,AAGTCTAT,0.0784
2,ATGTAATG,0.086
3,GATAACCC,0.0805
4,AACCCCAC,0.0835
5,CCGGACGA,0.0699
6,CAATCAGC,0.0758
7,GGTTCCAA,0.0712
8,ACCATGAA,0.0755
9,AAGGTCCA,0.0736
10,CGATCCCC,0.0801
11,AAGCATTG,0.0783
12,TCAAACGA,0.0696
13,GGGTGAAC,0.0697
14,CAACAATA,0.0766
15,ACTTGTAC,0.0751
16,CATCTAGG,0.0769
17,AGTACGTC,0.0764
18,ATGGAGTG,0.0877
19,TAGAACAA,0.0771
20,GCGTGTGA,0.0941
21,ATGACCGA,0.0788
22,GAACTTCC,0.0714
23,AAGTATGG,0.0812
24,CGTCGCTC,0.0705
25,CCTCACAA,0.0767

row,Sequence,binding signal (normalized occupancy)
1,GCGTCGCA,0.0728
2,GAGCTGAA,0.0688
3,AACGGCGG,0.069
4,CTTGTCCC,0.0696
5,CAGACGAG,0.0711
6,AGTACTCA,0.0774
7,CCAAACGA,0.0726
8,AATCTTTC,0.0698
9,ATGCGCGG,0.0785
10,ACCATTTC,0.0718
11,AATGAGGG,0.0862
12,ACACCCAG,0.0748
13,ATTGCTAA,0.0711
14,CTGTTTTC,0.0699
15,GGTCGCCA,0.0726
16,AACGTTGG,0.0767
17,CCGCGTCA,0.0734
18,GTACTCCA,0.0734
19,GCATACAA,0.0812
20,ATCAAGTG,0.0751
21,GTAACGCA,0.08
22,ATACTATG,0.0788
23,GAGTAGAA,0.0774
24,CAACACCA,0.0772
25,CCACCCGC,0.0829

row,Sequence,binding signal (normalized occupancy)
1,ACTAGGAG,0.0741
2,CTAGCCGC,0.0663
3,CAAAGAAG,0.075
4,GCGGGTAA,0.0806
5,ATGGAGAC,0.081
6,GAACCTCA,0.0742
7,AACCATGA,0.0836
8,CCTTGCGA,0.0752
9,CAACCTCC,0.0759
10,CTGGTCGA,0.066
11,ACATACGT,0.082
12,CGCGGAAG,0.0733
13,CACTACGA,0.0746
14,GGAGAGAC,0.0742
15,ACACTAGG,0.0765
16,ACGGGTAT,0.0838
17,CTGAGAGA,0.0752
18,GGACAACC,0.0763
19,ACCTGGCT,0.0765
20,AGAAAGAG,0.0717
21,CACCGGGC,0.0698
22,CCAAGGAG,0.0696
23,GCTAAGAC,0.0728
24,ATCCTATA,0.0822
25,AGAGCTCC,0.07

row,Sequence,binding signal (normalized occupancy)
1,ACCTTTTA,0.07
2,CGAACTTC,0.0708
3,AAAGGCCC,0.0706
4,AGAACGTC,0.0701
5,CAACCAAA,0.0736
6,AACCGTCT,0.0686
7,AGTCGGCG,0.0676
8,CTGTCTCC,0.0717
9,ACGTACCG,0.0781
10,AGAGTGAT,0.0778
11,CATTATAC,0.086
12,AGACACCC,0.0783
13,ATGGCTGG,0.0791
14,GCTGGAAA,0.0759
15,GCTGCTAC,0.0729
16,CGGTCAGC,0.0733
17,AGTGGGAG,0.071
18,GTGTATTA,0.0819
19,AGTCCTGA,0.071
